The text below walks through data of patent publication US20250066509A1.

Common to all, as to assay: cell-based or functional assay
Experiment [1] has as its target human FGFR2c/βKlotho receptor (human), P21802.
Experiment [2] concerns the target human FGFR3c/βKlotho receptor (human), P22607.
Experiment [3] has as its target human FGFR1c/βKlotho receptor (human), P11362.

Chain of human FGFR3c/βKlotho receptor (human), P22607 (P22607 23-806, chain 1 of 2): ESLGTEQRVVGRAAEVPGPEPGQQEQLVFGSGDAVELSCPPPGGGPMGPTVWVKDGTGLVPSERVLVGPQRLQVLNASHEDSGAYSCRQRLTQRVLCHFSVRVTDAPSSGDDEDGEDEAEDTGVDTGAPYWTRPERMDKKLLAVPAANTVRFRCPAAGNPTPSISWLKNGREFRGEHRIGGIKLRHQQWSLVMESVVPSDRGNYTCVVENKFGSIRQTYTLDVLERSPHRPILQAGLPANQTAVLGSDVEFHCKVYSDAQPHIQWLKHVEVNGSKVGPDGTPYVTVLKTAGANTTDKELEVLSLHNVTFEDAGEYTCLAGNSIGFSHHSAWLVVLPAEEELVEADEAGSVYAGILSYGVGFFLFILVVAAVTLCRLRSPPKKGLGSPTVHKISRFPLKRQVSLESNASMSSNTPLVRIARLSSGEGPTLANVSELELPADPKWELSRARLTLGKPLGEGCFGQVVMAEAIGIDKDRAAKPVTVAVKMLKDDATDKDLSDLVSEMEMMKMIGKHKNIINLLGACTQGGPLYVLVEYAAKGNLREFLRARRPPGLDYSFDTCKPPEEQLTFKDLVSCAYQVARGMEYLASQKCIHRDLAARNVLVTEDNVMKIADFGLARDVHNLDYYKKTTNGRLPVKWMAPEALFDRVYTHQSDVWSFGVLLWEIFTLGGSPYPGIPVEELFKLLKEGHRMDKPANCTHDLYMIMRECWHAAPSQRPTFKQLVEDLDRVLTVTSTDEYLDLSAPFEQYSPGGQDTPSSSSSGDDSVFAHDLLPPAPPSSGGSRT
Chain of human FGFR3c/βKlotho receptor (human), P22607 (chain, as listed by the source, chain 2 of 2): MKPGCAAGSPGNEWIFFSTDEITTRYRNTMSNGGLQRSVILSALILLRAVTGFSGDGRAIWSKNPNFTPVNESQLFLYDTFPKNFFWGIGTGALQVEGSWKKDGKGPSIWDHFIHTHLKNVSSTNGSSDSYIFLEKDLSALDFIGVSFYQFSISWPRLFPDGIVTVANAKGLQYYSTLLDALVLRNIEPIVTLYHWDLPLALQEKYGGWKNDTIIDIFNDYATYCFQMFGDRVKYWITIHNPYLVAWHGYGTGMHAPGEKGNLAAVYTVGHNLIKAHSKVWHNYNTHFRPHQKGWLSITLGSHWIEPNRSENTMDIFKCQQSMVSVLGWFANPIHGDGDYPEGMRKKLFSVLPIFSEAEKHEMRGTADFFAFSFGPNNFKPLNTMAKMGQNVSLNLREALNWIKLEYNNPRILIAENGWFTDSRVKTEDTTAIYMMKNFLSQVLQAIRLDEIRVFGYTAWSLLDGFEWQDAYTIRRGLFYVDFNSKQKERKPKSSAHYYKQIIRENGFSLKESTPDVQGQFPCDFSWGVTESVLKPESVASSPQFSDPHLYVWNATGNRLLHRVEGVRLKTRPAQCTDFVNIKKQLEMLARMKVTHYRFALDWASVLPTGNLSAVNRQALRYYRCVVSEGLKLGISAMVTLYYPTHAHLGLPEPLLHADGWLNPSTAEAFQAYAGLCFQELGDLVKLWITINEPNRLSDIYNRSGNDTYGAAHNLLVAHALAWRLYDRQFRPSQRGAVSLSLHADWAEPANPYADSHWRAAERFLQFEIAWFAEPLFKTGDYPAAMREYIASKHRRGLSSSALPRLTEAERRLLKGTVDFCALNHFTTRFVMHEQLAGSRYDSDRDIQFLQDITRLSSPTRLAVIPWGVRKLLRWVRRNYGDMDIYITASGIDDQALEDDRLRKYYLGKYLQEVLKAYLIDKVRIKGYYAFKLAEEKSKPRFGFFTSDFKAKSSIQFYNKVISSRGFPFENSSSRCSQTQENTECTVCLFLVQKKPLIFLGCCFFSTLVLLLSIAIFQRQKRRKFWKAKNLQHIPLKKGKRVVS
Chain of human FGFR2c/βKlotho receptor (human), P21802 (P21802 22-821, chain 1 of 2): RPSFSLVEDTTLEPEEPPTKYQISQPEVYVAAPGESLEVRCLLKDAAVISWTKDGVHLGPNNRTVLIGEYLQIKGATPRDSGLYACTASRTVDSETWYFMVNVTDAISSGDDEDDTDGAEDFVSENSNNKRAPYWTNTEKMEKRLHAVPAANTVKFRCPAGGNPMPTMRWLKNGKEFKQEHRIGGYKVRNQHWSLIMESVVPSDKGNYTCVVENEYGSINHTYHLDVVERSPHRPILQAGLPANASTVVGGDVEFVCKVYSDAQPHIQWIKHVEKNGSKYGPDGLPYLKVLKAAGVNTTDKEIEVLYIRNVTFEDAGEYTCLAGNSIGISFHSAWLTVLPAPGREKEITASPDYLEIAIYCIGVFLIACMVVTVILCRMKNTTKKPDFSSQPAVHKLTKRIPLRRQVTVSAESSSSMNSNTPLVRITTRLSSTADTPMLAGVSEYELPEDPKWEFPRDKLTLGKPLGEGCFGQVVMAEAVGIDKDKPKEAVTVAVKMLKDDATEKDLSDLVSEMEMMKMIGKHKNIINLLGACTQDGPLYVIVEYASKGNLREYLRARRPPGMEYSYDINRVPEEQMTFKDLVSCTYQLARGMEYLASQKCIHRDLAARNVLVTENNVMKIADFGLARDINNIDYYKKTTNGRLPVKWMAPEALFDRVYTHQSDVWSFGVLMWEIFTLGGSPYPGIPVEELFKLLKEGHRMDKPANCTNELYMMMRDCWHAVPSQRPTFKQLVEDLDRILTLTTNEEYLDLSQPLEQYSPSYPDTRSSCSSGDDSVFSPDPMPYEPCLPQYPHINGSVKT
Chain of human FGFR2c/βKlotho receptor (human), P21802 (chain, as listed by the source, chain 2 of 2): as the sequence (chain, as listed by the source, chain 2 of 2) above
Chain of human FGFR1c/βKlotho receptor (human), P11362 (P11362 22-822, chain 1 of 2): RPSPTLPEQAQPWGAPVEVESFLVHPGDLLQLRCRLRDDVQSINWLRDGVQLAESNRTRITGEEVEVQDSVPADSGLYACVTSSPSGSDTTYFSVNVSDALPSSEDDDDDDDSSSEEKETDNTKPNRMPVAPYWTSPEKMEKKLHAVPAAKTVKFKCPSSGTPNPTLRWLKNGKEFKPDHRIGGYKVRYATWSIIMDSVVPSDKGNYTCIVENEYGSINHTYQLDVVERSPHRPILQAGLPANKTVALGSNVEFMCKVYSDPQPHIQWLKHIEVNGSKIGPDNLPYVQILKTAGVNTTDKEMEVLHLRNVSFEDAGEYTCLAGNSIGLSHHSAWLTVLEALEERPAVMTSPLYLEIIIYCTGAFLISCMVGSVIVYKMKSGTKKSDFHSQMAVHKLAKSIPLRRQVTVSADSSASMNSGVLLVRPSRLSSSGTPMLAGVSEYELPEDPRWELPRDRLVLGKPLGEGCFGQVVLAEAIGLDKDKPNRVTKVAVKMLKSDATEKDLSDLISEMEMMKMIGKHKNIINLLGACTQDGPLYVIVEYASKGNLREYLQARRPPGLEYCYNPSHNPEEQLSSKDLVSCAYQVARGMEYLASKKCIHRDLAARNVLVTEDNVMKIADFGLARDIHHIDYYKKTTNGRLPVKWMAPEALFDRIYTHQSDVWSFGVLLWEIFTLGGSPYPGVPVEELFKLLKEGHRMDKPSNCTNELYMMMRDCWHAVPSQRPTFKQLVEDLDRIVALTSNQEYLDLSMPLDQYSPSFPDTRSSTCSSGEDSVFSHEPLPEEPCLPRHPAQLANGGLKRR
Chain of human FGFR1c/βKlotho receptor (human), P11362 (chain, as listed by the source, chain 2 of 2): as the sequence (chain, as listed by the source, chain 2 of 2) above

B1: CB-8-42 (antibody, human IgG1, kappa)
heavy: EVQLVQSGAEVKKPGASVKVSCKASGYTFTSYGISWVRQAPGQGLEWMGWISAYSGNTNYAQKLQGRVTMTTDTSTSTAYMELRSLRSDDTAVYYCATLLPSGSLYYWGQGTLVTVSSASTKGPSVFPLAPSSKSTSGGTAALGCLVKDYFPEPVTVSWNSGALTSGVHTFPAVLQSSGLYSLSSVVTVPSSSLGTQTYICNVNHKPSNTKVDKKV[letters of human IgG1 Fc with E233A L235A (EU numbers) left out]
light: DIVMTQSPSSLSAPVGDRVTITCQASQDIRNYINWFQQKPGKAPKLLIYAASYLQSGVPSRFSGSGSGTDFTLTISSLQPEDFATYYCQQSYSTPQWTFGQGTKVEIKRTVAAPSVFIFPPSDEQLKSGTASVVCLLNNFYPREAKVQWKVDNALQSGNSQESVTEQDSKDSTYSLSSTLTLSKADYEKHKVYACEVTHQGLSSPVTKSFNRGEC
For the molecule B1, the figures for the EC50, luciferase reporter-based assay (receptor activation) in experiment [1], in experiment [2] and in experiment [3] were over 100 nM, over 100 nM and 0.66 nM, respectively.
